Some test systems named below: A101D; A2058; A375.
What all share (assay): cell count relative to DMSO control; melanoma cells; higher = more viable cells
Holding throughout (settings): library dose: standard library concentration; 72 h

The structures appear in SMILES notation. The list shows a part of the results. Most values come without repeats; read them as rough.

From the supplement of paper PMC4604168 (melanoma cell lines) come the findings set out here.
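Note: cells treated in 1,536-well plates, then fixed and DAPI-stained, with nuclei counted from automated high-throughput microscope images.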

Turning to `CC(=O)O[C@@]12CO[C@@H]1C[C@H](O)[C@@]1(C)C(=O)[C@H](O)C3=C(C)[C@@H](OC(=O)[C@H](O)[C@@H](NC(=O)OC(C)(C)C)c4ccccc4)C[C@@](O)([C@@H](OC(=O)c4ccccc4)[C@H]21)C3(C)C` [Docetaxel] + NC(=O)Nc1cc(-c2cccc(F)c2)sc1C(=O)N[C@H]1CCCNC1 [AZD7762] (first compound 0.0005 µM, partner dose 0.1 µM), the results for the cell count with A101D, in the test with A2058 and with A375 were 53.4%, 4.31% and 43.6%, respectively.
For `CO[C@H]1C[C@@H]2CC[C@@H](C)[C@@](O)(O2)C(=O)C(=O)N2CCCC[C@H]2C(=O)O[C@H]([C@H](C)C[C@@H]2CC[C@@H](OCCO)[C@H](OC)C2)CC(=O)[C@H](C)/C=C(\C)[C@@H](O)[C@@H](OC)C(=O)[C@H](C)C[C@H](C)/C=C/C=C/C=C/1C` [everolimus] + COCC[n+]1c2c(n(Cc3cnccn3)c1C)C(=O)c1ccccc1C2=O [YM155] (first compound 0.1 µM, partner dose 0.002 µM) the same measures were 39.7%, 36.3% and 69.7%.
`Nc1ccn([C@@H]2O[C@H](CO)[C@@H](O)C2(F)F)c(=O)n1` [gemcitabine] + O=C(CCCCCCC(=O)Nc1ccccc1)NO [vorinostat] (first compound 0.002 µM, partner dose 0.4 µM): the cell count came out at 85.1% in the test with A101D, 62.8% in the test on A2058 and 112% in the test with A375.
As for `CC(=O)O[C@@]12CO[C@@H]1C[C@H](O)[C@@]1(C)C(=O)[C@H](O)C3=C(C)[C@@H](OC(=O)[C@H](O)[C@@H](NC(=O)OC(C)(C)C)c4ccccc4)C[C@@](O)([C@@H](OC(=O)c4ccccc4)[C@H]21)C3(C)C` [Docetaxel] + CN(c1ncccc1CNc1nc(Nc2ccc3c(c2)CC(=O)N3)ncc1C(F)(F)F)S(C)(=O)=O [PF562271] (first compound 0.0005 µM, partner dose 0.4 µM), the cell count in the test on A101D is 42.3%; in the test with A2058, 8.79%; with A375, 56.9%.
On the same counts, the results for `CC(=O)c1c(C)c2cnc(Nc3ccc(N4CCNCC4)cn3)nc2n(C2CCCC2)c1=O` [palbociclib] + COc1cc2c(Oc3ccc4[nH]c(C)cc4c3F)ncnc2cc1OCCCN1CCCC1 [cediranib] (first compound 0.2 µM, partner dose 2 µM) are 73.1%, 97.1% and 78%.
On the same counts, the results for `CO[C@H]1C[C@@H]2CC[C@@H](C)[C@@](O)(O2)C(=O)C(=O)N2CCCC[C@H]2C(=O)O[C@H]([C@H](C)C[C@@H]2CC[C@@H](OCCO)[C@H](OC)C2)CC(=O)[C@H](C)/C=C(\C)[C@@H](O)[C@@H](OC)C(=O)[C@H](C)C[C@H](C)/C=C/C=C/C=C/1C` [everolimus] + OCCn1cc(-c2cnc3nnn(Cc4ccc5ncccc5c4)c3n2)cn1 [PF04217903] (first compound 0.1 µM, partner dose 5 µM) are 88.4%, 54.1% and 91.6%.
With `Nc1ncn([C@H]2C[C@H](O)[C@@H](CO)O2)c(=O)n1` [decitabine] + Cn1cncc1[C@@](N)(c1ccc(Cl)cc1)c1ccc2c(c1)c(-c1cccc(Cl)c1)cc(=O)n2C [tipifarnib] (first compound 0.5 µM, partner dose 0.05 µM), the cell count with A101D came out at 103%; in the test on A2058, 78.6%; with A375, 98%.
For `CO[C@H]1C[C@@H]2CC[C@@H](C)[C@@](O)(O2)C(=O)C(=O)N2CCCC[C@H]2C(=O)O[C@H]([C@H](C)C[C@@H]2CC[C@@H](OCCO)[C@H](OC)C2)CC(=O)[C@H](C)/C=C(\C)[C@@H](O)[C@@H](OC)C(=O)[C@H](C)C[C@H](C)/C=C/C=C/C=C/1C` [everolimus] + CC(C)(C)c1cnc(CSc2cnc(NC(=O)C3CCNCC3)s2)o1 [SNS-032] (first compound 0.1 µM, partner dose 0.05 µM) the same measures were 69.1%, 62% and 86.2%.
For `CO[C@H]1C[C@@H]2CC[C@@H](C)[C@@](O)(O2)C(=O)C(=O)N2CCCC[C@H]2C(=O)O[C@H]([C@H](C)C[C@@H]2CC[C@@H](OCCO)[C@H](OC)C2)CC(=O)[C@H](C)/C=C(\C)[C@@H](O)[C@@H](OC)C(=O)[C@H](C)C[C@H](C)/C=C/C=C/C=C/1C` [everolimus] + CN(C)S(=O)(=O)c1ccc2c(c1)/C(=C/c1cc3c([nH]1)CCCC3)C(=O)N2 [SU6656] (first compound 0.1 µM, partner dose 2 µM) the same measures were 90.5%, 77.2% and 128%.
`Nc1ccn([C@@H]2O[C@H](CO)[C@@H](O)C2(F)F)c(=O)n1` [gemcitabine] + O=C(Nc1cccc(Cl)c1)Nc1ncc(CCNc2ncnc3ccsc23)s1 [SNS314] (first compound 0.002 µM, partner dose 0.004 µM): the cell count in the test with A101D was determined as 77.9%; in the test with A2058, 52.7%; with A375, 92.2%.
For `Nc1nc(F)nc2c1ncn2[C@@H]1O[C@H](CO)[C@@H](O)[C@@H]1O` [fludarabine] + C=CCn1c(=O)c2cnc(Nc3ccc(N4CCN(C)CC4)cc3)nc2n1-c1cccc(C(C)(C)O)n1 [MK1775] (first compound 1 µM, partner dose 0.1 µM), the values for the cell count with A101D, in the test on A2058 and in the test on A375 were 49%, 75.7% and 44.9%, respectively.
For the molecule `CC(=O)O[C@@]12CO[C@@H]1C[C@H](O)[C@@]1(C)C(=O)[C@H](O)C3=C(C)[C@@H](OC(=O)[C@H](O)[C@@H](NC(=O)OC(C)(C)C)c4ccccc4)C[C@@](O)([C@@H](OC(=O)c4ccccc4)[C@H]21)C3(C)C` [Docetaxel] + Nc1cccc2c1CN(C1CCC(=O)NC1=O)C2=O [lenalidomide] (first compound 0.0005 µM, partner dose 5 µM), the cell count with A101D was determined as 50.1%; with A2058, 8.24%; in the test with A375, 76.1%.
For the molecule `CO[C@H]1C[C@@H]2CC[C@@H](C)[C@@](O)(O2)C(=O)C(=O)N2CCCC[C@H]2C(=O)O[C@H]([C@H](C)C[C@@H]2CC[C@@H](OCCO)[C@H](OC)C2)CC(=O)[C@H](C)/C=C(\C)[C@@H](O)[C@@H](OC)C(=O)[C@H](C)C[C@H](C)/C=C/C=C/C=C/1C` [everolimus] + CS(=O)(=O)CCNCc1ccc(-c2ccc3ncnc(Nc4ccc(OCc5cccc(F)c5)c(Cl)c4)c3c2)o1 [lapatinib] (first compound 0.1 µM, partner dose 4 µM), the cell count in the test with A101D is 92%; in the test on A2058 it was 68%; in the test on A375, 108%.
For `CC(=O)c1c(C)c2cnc(Nc3ccc(N4CCNCC4)cn3)nc2n(C2CCCC2)c1=O` [palbociclib] + C[C@@H]1CCN(C(=O)CC#N)C[C@@H]1N(C)c1ncnc2[nH]ccc12 [CP690550] (first compound 0.2 µM, partner dose 5 µM) the same measures were 69.4%, 96% and 76.5%.
As to `Nc1ccn([C@@H]2O[C@H](CO)[C@@H](O)C2(F)F)c(=O)n1` [gemcitabine] + Nc1nc(F)nc2c1ncn2[C@@H]1O[C@H](CO)[C@@H](O)[C@@H]1O [fludarabine] (first compound 0.002 µM, partner dose 1 µM), the cell count in the test on A101D came out at 63.2%; in the test on A2058, 50.2%; in the test with A375, 21.4%.
In the case of `Nc1ccn([C@@H]2O[C@H](CO)[C@@H](O)C2(F)F)c(=O)n1` [gemcitabine] + OCCn1cc(-c2cnc3nnn(Cc4ccc5ncccc5c4)c3n2)cn1 [PF04217903] (first compound 0.002 µM, partner dose 5 µM), the cell count with A101D amounted to 83%; in the test with A2058, 65.6%; in the test on A375, 89.8%.
Regarding `Nc1ccn([C@@H]2O[C@H](CO)[C@@H](O)C2(F)F)c(=O)n1` [gemcitabine] + NCC(=O)Nc1ccc(-n2nc(C(F)(F)F)cc2-c2ccc3c(ccc4ccccc43)c2)cc1 [OSU03012] (first compound 0.002 µM, partner dose 5 µM), the cell count in the test on A101D was determined as 85.5%; in the test on A2058, 62.3%; in the test on A375 it was 69%.
As to `Nc1ccn([C@@H]2O[C@H](CO)[C@@H](O)C2(F)F)c(=O)n1` [gemcitabine] + CC1(C)NC(=O)N(c2ccc([N+](=O)[O-])c(C(F)(F)F)c2)C1=O [nilutamide] (first compound 0.002 µM, partner dose 5 µM), the cell count with A101D worked out at 82.8%; with A2058, 81%; in the test on A375 it was 96%.
For `Nc1ccn([C@@H]2O[C@H](CO)[C@@H](O)C2(F)F)c(=O)n1` [gemcitabine] + Cn1cc(/C=C2\C(=O)Nc3cccnc32)c2ccccc21 [GW441756] (first compound 0.002 µM, partner dose 2 µM) the same measures were 103%, 107% and 154%.
On the same counts, the results for `CC(=O)O[C@@]12CO[C@@H]1C[C@H](O)[C@@]1(C)C(=O)[C@H](O)C3=C(C)[C@@H](OC(=O)[C@H](O)[C@@H](NC(=O)OC(C)(C)C)c4ccccc4)C[C@@](O)([C@@H](OC(=O)c4ccccc4)[C@H]21)C3(C)C` [Docetaxel] + Cn1nnc2c(C(N)=O)ncn2c1=O [temozolomide] (first compound 0.0005 µM, partner dose 10 µM) are 47.9%, 7.78% and 59.7%.
On to `CO[C@H]1C[C@@H]2CC[C@@H](C)[C@@](O)(O2)C(=O)C(=O)N2CCCC[C@H]2C(=O)O[C@H]([C@H](C)C[C@@H]2CC[C@@H](OCCO)[C@H](OC)C2)CC(=O)[C@H](C)/C=C(\C)[C@@H](O)[C@@H](OC)C(=O)[C@H](C)C[C@H](C)/C=C/C=C/C=C/1C` [everolimus] + C[C@]1(c2nc3c(C(N)=O)cccc3[nH]2)CCCN1 [Veliparib] (first compound 0.1 µM, partner dose 7 µM), for which the cell count with A101D is 73.5%; in the test on A2058, 64.1%; in the test on A375, 91.7%.
In the case of `CO[C@H]1C[C@@H]2CC[C@@H](C)[C@@](O)(O2)C(=O)C(=O)N2CCCC[C@H]2C(=O)O[C@H]([C@H](C)C[C@@H]2CC[C@@H](OCCO)[C@H](OC)C2)CC(=O)[C@H](C)/C=C(\C)[C@@H](O)[C@@H](OC)C(=O)[C@H](C)C[C@H](C)/C=C/C=C/C=C/1C` [everolimus] + NC(=O)Nc1cc(-c2cccc(F)c2)sc1C(=O)N[C@H]1CCCNC1 [AZD7762] (first compound 0.1 µM, partner dose 0.1 µM), the cell count is 70.1% in the test on A101D, 39.4% with A2058 and 31.6% in the test with A375.
For `CC(=O)O[C@@]12CO[C@@H]1C[C@H](O)[C@@]1(C)C(=O)[C@H](O)C3=C(C)[C@@H](OC(=O)[C@H](O)[C@@H](NC(=O)OC(C)(C)C)c4ccccc4)C[C@@](O)([C@@H](OC(=O)c4ccccc4)[C@H]21)C3(C)C` [Docetaxel] + CO[C@@H]1[C@H](N(C)C(=O)c2ccccc2)C[C@H]2O[C@]1(C)n1c3ccccc3c3c4c(c5c6ccccc6n2c5c31)C(=O)NC4 [Midostaurin] (first compound 0.0005 µM, partner dose 0.4 µM), the cell count with A101D was found to be 54.6%; in the test on A2058, 5.68%; in the test with A375, 73.6%.
